Laboratory results as given in PMC4336329 (PLoS ONE, 2015).
In all, about 310,000 compounds went through this assay and about 14,000 (4.5%) showed an effect of 50% or more. Effects have a minus sign here. The list shows a part of the results.

biological target: human ether-à-go-go-related gene (hERG) potassium channel (human, UniProt Q12809); assay: primary screen, population patch clamp on CHO cells stably expressing hERG
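Further: peak tail current of the secondary pulse compared with the same well before compound.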

Chain of human ether-à-go-go-related gene (hERG) potassium channel (Q12809 whole entry, looked up): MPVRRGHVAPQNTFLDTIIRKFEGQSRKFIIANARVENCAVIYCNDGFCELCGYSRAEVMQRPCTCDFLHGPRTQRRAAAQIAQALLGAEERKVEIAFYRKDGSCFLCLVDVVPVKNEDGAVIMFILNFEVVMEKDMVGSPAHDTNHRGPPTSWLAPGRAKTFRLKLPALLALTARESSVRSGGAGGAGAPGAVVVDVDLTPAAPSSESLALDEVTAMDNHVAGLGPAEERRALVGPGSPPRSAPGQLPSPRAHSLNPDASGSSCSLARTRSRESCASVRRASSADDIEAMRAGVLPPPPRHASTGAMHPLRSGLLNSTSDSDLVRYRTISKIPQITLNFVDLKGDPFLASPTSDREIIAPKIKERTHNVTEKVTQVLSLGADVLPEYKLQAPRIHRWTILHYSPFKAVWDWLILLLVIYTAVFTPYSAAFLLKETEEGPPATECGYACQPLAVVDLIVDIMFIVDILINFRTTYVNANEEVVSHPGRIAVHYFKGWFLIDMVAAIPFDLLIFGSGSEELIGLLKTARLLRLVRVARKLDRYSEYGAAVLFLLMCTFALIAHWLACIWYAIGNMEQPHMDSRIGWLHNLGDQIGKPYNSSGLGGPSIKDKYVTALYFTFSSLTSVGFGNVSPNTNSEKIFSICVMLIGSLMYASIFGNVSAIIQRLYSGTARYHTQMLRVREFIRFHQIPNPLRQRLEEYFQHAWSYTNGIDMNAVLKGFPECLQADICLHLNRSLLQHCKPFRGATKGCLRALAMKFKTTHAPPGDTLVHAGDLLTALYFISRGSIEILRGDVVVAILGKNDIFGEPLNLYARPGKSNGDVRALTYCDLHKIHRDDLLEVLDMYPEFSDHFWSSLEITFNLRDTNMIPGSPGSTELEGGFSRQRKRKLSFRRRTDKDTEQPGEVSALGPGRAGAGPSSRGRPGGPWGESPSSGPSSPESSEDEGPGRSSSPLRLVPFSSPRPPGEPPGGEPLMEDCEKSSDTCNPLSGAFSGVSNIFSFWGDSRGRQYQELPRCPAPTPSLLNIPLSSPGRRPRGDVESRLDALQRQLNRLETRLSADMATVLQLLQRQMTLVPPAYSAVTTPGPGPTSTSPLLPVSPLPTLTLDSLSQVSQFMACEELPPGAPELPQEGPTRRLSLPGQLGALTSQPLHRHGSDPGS

Row | Compound | hERG current change (%, negative = inhibition) at 10uM [%]
1 | Cc1ccc(NC(=O)c2cccc(C(=O)Nc3ccc(C)c(C)c3)n2)cc1C | 12.7
2 | CC1=C(C(=O)OCc2ccccc2)C(c2cccc(Cl)c2Cl)NC(=O)N1CCCCCC(=O)O (stereo not drawn) | -16.5
3 | Cc1ccc(C(=O)N2CCCC(N3CCN(c4cccc(C(F)(F)F)c4)CC3)C2)s1 (stereo not drawn) | -51
4 | CC(C)C(NC(=O)OCc1ccccc1)C(=O)NCc1ccc(C(=O)O)cc1 (stereo not drawn) | -23.5
5 | CN(/N=C/c1ccccc1)C(=S)c1ccccc1 | 3.94
6 | Cc1csc2nc(CCNS(=O)(=O)c3cccs3)cn12 | -1.3
7 | CCOC(=O)c1[nH]c2ccccc2c1NC(=O)COC | -4.53
8 | COc1ccc(N(C)C(=O)c2cc3c(s2)-c2c(C)cccc2OC3)c(OC)c1 | 0.641
9 | COC1CCCCC1Nc1ccc(C)c(C)c1 (stereo not drawn) | -5.94
10 | Cc1nonc1NC(=O)N1CCCC1 | -15.2
11 | COc1ccc(C(=O)CC(=O)C(=O)Nc2ccc(C)c(C)c2)cc1 | -12.2
12 | CCCNc1c(NS(=O)(=O)c2ccc(Br)cc2)c(=O)oc2ccccc12 | -34.7
13 | CC(C)=C(NC(=O)c1ccccc1Br)C(=O)NCCc1nc2ccccc2[nH]1 | 3.68
14 | CCc1noc(C)c1C(=O)Nc1cc(Cl)ccc1N1CCOCC1 | -17.1
15 | Clc1ccc2c(NCc3cccs3)ncnc2c1 | 18.5
16 | O=C(Nc1ccc(C(=O)O)cc1)/C(=C\c1ccc([N+](=O)[O-])cc1)NC(=O)c1ccc(Br)cc1 | 7.58
17 | Cc1ccc(C(=O)N[C@@H](C)CN2C3=NC[C@H](Cc4ccccc4)N3C[C@H]2Cc2ccc(O)cc2)cc1Br | -82.5
18 | COc1cc(-c2nnc(Cn3cc(C(F)(F)F)ccc3=O)o2)cc(OC)c1OC | -3
19 | CCN1CCc2c(OCC(=O)Nc3cccc(C)c3C)cccc2C1=O | -17.1
20 | O=C(O)/C=C/c1cn(Cc2ccccc2)nc1-c1cccnc1 | 12
21 | CC(=O)N(C1=C(O)c2ccccc2C(=O)C1=O)C1CCCCC1 | -2.34
22 | COc1ccc2c(c1)[C@@H]1[C@H](CO2)[C@H](c2ccccc2)[C@]2(C)C(=O)NCC(=O)N12 | 4.48
23 | CCN(CC)C(=S)SCC(=O)c1ccc(Br)cc1 | 13.3
24 | CN1CCN(NC(=O)c2cccc(C(F)(F)F)c2)CC1 | 0.224
